PubChem BioAssay AID504845 (National Center for Advancing Translational Sciences (NCATS), 2011)
Values joined by “and” are separate entries in the source; they are usually repeats but may differ in a detail not shown here. Equal entries are not always repeated. In all, about 390,000 compounds went through this assay and about 150 (0.038%) were called active. The inconclusive results got no clear call from the source; some entries with a clear call stand among them for comparison. Calls come from the whole dose curve; as a rule, active = well fitted inhibition curve with a large enough effect; inconclusive = small, poorly fitted or top-dose-only effect; inactive = no such curve, though single readings can be large or run the other way. Where the call is inconclusive, the potency comes from a doubtful curve fit.

Target: Regulator of G-protein signaling 4 (Homo sapiens) (UniProt P49798)
Chain of UniProt P49798 (P49798 whole entry, looked up): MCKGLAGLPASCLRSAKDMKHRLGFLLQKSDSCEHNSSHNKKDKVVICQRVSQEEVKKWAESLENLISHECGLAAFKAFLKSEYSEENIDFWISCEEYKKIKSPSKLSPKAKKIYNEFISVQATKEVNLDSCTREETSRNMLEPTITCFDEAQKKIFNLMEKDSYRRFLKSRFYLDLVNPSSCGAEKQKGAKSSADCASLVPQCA
Experiment: Inhibitors of Regulator of G Protein Signaling (RGS) 4: qHTS; note: nearly all actives have a fitted effect of over 75% in size
Conditions: Transcreener GDP fluorescence polarization, RGS4-accelerated GTP hydrolysis; series mostly up to 114 µM
Outline: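 MLSMR compounds (23 nl, pin-transferred) preincubated 10 min at room temperature with a 500nM (2x) first reagent, then RGS4 at 900nM (2x) plus Transcreener GDP mix added; fluorescence polarization (620/688 nm) read before and after 90 min at 30 °C.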
% is set by controls: 0 for no effect and ±100 for the full control effect; potency is the fitted concentration of half-maximal effect; tags give direction and shape of the fitted curve.

| Compound | Potency | activity change, negative = inhibition |
| --- | --- | --- |
| O=C(NCCSc1ccccc1)c1ccc(Br)cc1 | inactive |  |
| CN1[C@@H]2CC[C@H]1CC(OC(=O)[C@H](CO)c1ccccc1)C2 (some centres undefined) | inactive |  |
| Cc1ccc2[nH]c(=O)c(C(c3nnnn3C3CCCC3)N3CCCc4ccccc43)cc2c1 (centres undefined) | inconclusive: 56.2 µM [inhibitor, partial curve, poor fit] |  |
| CCOC(=O)c1sc(-c2cccc([N+](=O)[O-])c2)cc1N | inconclusive: 79.4 µM [inhibitor, partial curve, poor fit] |  |
| Cn1c(SCC(=O)NC2CC2)nnc1-c1ccccc1Cl | inconclusive: 89.1 µM [inhibitor, single point] |  |
| COC(=O)c1ccc(NC(=O)c2c(NCc3cccc(F)c3)sc3c2CCCC3)cc1 | inconclusive: 50.1 µM [inhibitor, partial curve, poor fit] |  |
| O=C(/C=C/c1ccc([N+](=O)[O-])cc1)c1ccccc(=O)c1O | inconclusive: 31.6 µM [inhibitor, full curve, poor fit] |  |
| CS(=O)(=O)c1ccc2nc(NC(=O)CN3C(=O)C4CC=CCC4C3=O)sc2c1 (centres undefined) | inconclusive: 89.1 µM [inhibitor, single point] |  |
| Cc1cccc(N2CC(C(=O)Nc3nnc(SCCC4OCCO4)s3)CC2=O)c1 (centres undefined) | inconclusive: 79.4 µM [inhibitor, single point] |  |
| CC(C)(C)C(=O)[C@@H]1[C@@H]2C(=O)N(c3ccc4c(c3)OCCO4)C(=O)[C@@H]2C2c3ccccc3C=CN21 (some centres undefined) | inconclusive: 100 µM [inhibitor, partial curve, poor fit] |  |
| CC1CN(c2ccc([N+](=O)[O-])c(NCCOc3ccccc3)c2)CC(C)N1 (centres undefined) | inactive |  |
| O=C(CSc1nc2ccccc2c(=O)[nH]1)Nc1ccc([N+](=O)[O-])cc1 | inactive |  |
| CC(=O)c1ccccc1OCc1ccc(S(=O)(=O)Cc2ccccc2)cc1 | inactive |  |
| C[n+]1cnn2c1SCC1(COC1)C2 | inactive |  |
| CN1C(=O)CC(P(=O)(c2ccccc2)c2ccccc2)N(C)C1=O (centres undefined) | inactive |  |
| Cc1cc(SCNC(=O)c2ccccc2)nc(C(C)C)n1 | inconclusive: 17.8 µM [inhibitor, full curve, poor fit] |  |
| COc1ccccc1Nc1nc(NCC2CCCO2)c2ccccc2n1 (centres undefined) | inconclusive: 100 µM [inhibitor, partial curve, poor fit] |  |
| Cc1ccc(S(=O)(=O)NCc2ccc(C(=O)NCCc3ccc(S(N)(=O)=O)cc3)cc2)cc1 | inconclusive: 50.1 µM [inhibitor, partial curve, poor fit] |  |
| COc1ccc(N2CCN(S(=O)(=O)c3ccc(C4CCCCC4)cc3)CC2)cc1 | inactive |  |
| CC(C)NCC(O)c1ccc(O)c(O)c1 (centres undefined) | inconclusive: 168 nM [inhibitor, full curve, poor fit] and inconclusive: 42.3 µM [inhibitor, single point] |  |
| Nc1ccc(O)cc1 | inconclusive: 44.7 µM [inhibitor, partial curve, poor fit] |  |
| O=C(N/N=C\c1c(O)ccc2ccccc12)c1ccc(S(=O)(=O)N2CCCCC2)cc1 | inactive |  |
| Cc1cc(C)n2nc(C(=O)NCC(=O)Nc3ccc(F)c(F)c3)nc2n1 | inactive |  |

| Compound | Potency | activity change, negative = inhibition |
| --- | --- | --- |
| Cc1ccc(N2C(=O)CS/C2=C(\C(Cl)=C(Cl)Cl)[N+](=O)[O-])cc1 | inconclusive: 11.2 µM [inhibitor, full curve, poor fit] |  |
| Cc1nn(C)cc1/C=N\NC(=O)c1ccc2c(c1)c(C)c(C)n2Cc1ccccc1 | inconclusive: 79.4 µM [inhibitor, partial curve, poor fit] |  |
| Cc1c(CCO)c(=O)n(-c2ccccc2)n1S(=O)(=O)c1ccc([N+](=O)[O-])cc1 | inconclusive: 50.1 µM [inhibitor, partial curve, poor fit] |  |
| CC(C)(C)c1ccc(C(=O)NCC(c2ccco2)S(=O)(=O)c2ccc(F)cc2)cc1 (centres undefined) | inconclusive: 89.1 µM [inhibitor, single point] |  |
| O=c1cc(O)n(Cc2ccc(F)cc2)c(=O)[nH]1 | inconclusive: 17.8 µM [inhibitor, full curve, poor fit] |  |
| CCOC(=O)/C(=N\Nc1ccc(Cl)cc1)c1csc(Nc2ccccc2)n1 | inconclusive: 89.1 µM [inhibitor, single point] |  |
| CCCn1c2c(c(O)c(C(=O)Nc3nccs3)c1=O)CCCC2 | inactive |  |
| Cc1ccc(F)cc1NC(=O)CSCc1nc2sc(C)c(C)c2c(=O)[nH]1 | inactive |  |
| CSc1nnc(C(C)c2ncc(C(F)(F)F)cc2Cl)n1C (centres undefined) | inconclusive: 79.4 µM [inhibitor, partial curve, poor fit] |  |
| COCCNC(=O)C(=O)NNS(=O)(=O)c1ccc2ccccc2c1 | inconclusive: 28.2 µM [inhibitor, full curve, poor fit] |  |
| Cc1cccc2nc(CSc3nc4cc([N+](=O)[O-])ccc4s3)cn12 | inconclusive: 17.8 µM [inhibitor, full curve, poor fit] |  |
| Cc1cc(C)cc(NC(=O)Nc2ccc3nc(N4CCN(C)CC4)cc(C)c3c2)c1 | inactive |  |
| CC(C)C(=O)Nc1nnc(CSCc2ccccc2F)s1 | inactive |  |
| Cc1ccc(Cn2c(Sc3ncccn3)nc3c2c(=O)[nH]c(=O)n3C)cc1 | inconclusive: 89.1 µM [inhibitor, single point] |  |
| COc1ccccc1NC(=S)NCC1CCCCC1 | inconclusive: 17.8 µM [inhibitor, full curve, poor fit] |  |
| CCC(=O)NNC(=O)CCC(=O)Nc1ccc(C)cc1C | inconclusive: 44.7 µM [inhibitor, partial curve, poor fit] |  |
| O=C(O)CCC(=O)Nc1sc2c(c1C(=O)Nc1ccccc1)CCCCC2 | inconclusive: 50.1 µM [inhibitor, partial curve, poor fit] |  |
| COc1cc(C(=S)N2CCCC2)ccc1O | inconclusive: 79.4 µM [inhibitor, partial curve, poor fit] |  |
| O=[N+]([O-])c1c(NCCCO)cc(SCc2ccco2)c2nonc12 | inactive |  |
| O=C(c1ccccc1Cl)N1CCNCC1 | inactive |  |
| O=C(NCC(=O)N1CCN(C(=O)c2ccco2)CC1)c1ccc(Br)cc1 | inconclusive: 79.4 µM [inhibitor, partial curve, poor fit] |  |
| CCC1Nc2ncnc(N3CCOCC3)c2N(Cc2ccc(OC)cc2)C1=O (centres undefined) | inconclusive: 39.8 µM [inhibitor, partial curve, poor fit] |  |
| c1ccc(Cc2nn3c(COc4ccccc4)nnc3s2)cc1 | inconclusive: 31.6 µM [inhibitor, partial curve, poor fit] |  |

| Compound | Potency | activity change, negative = inhibition |
| --- | --- | --- |
| COc1ccccc1NC(C)=[N+](C)CCNS(=O)(=O)c1ccc(Cl)cc1 | inactive |  |
| COc1ccccc1-c1cc(C(=O)Nc2cc(C)nn2-c2ccccc2)no1 | inconclusive: 50.1 µM [inhibitor, partial curve, poor fit] |  |
| Cc1ccc(/C=C2\SC(N3CCCCC3)=NC2=O)cc1 | inconclusive: 89.1 µM [inhibitor, partial curve, poor fit] |  |
| CCCn1c(NCc2cccc(OC)c2O)nc2ccccc21 |  | inactive: 7.04% [at 11.4 µM] |
| CC1CCN(S(=O)(=O)N2CCCC(C(=O)NCc3ccc(F)cc3)C2)CC1 (centres undefined) | inconclusive: 56.2 µM [inhibitor, partial curve, poor fit] |  |
| Cc1cccc(C)c1NC(=O)CSc1nc(-c2ccco2)cc(C(F)(F)F)n1 | inactive |  |
| COc1ccc(-c2c(C)nn(-c3ccccc3)c2N)cc1OC | inactive |  |
| O=[N+]([O-])c1ccc(/C=N\N2CCN(c3ccc(Cl)cc3)CC2)cc1 | inactive |  |
| COc1ccc(C)cc1NC(=O)Cn1c(=O)n(Cc2nc(C)no2)c(=O)c2ccccc21 | inactive |  |
| CC1=C(C)CS(=O)N(S(=O)(=O)c2ccccc2)C1 (centres undefined) | inconclusive: 50.1 µM [inhibitor, partial curve, poor fit] |  |
| O=C(Nc1nnc2n1CCS2)c1ccc(F)cc1F | inactive |  |
| CC(=O)Nc1ccc(N(CC(O)Cn2c3ccccc3c3ccccc32)S(=O)(=O)c2ccc(C)cc2)cc1 (centres undefined) | inactive |  |
| Cc1ccc(C)c(S(=O)(=O)N(C)c2ccc(OC(=O)CN3C(=O)NC4(CCCC4)C3=O)cc2)c1 | inactive |  |
| CC(C)C(=O)Nc1ccc(C(=O)c2ccccc2)cc1 | inactive |  |
| N#Cc1cccc(N=Cc2c(O)ccc3ccccc23)c1 | inconclusive: 50.1 µM [inhibitor, partial curve, poor fit] |  |
| COc1ccc(CCNC(=O)c2ccc(Cn3c(=O)c4ccccc4n(Cc4cccc(Cl)c4)c3=O)cc2)cc1OC | inactive |  |
| Fc1cccc(Cl)c1/C=C/c1cnc2ccccc2n1 | inconclusive: 31.6 µM [inhibitor, full curve, poor fit] |  |
| COc1ccccc1C(CNC(=O)c1cccc(S(=O)(=O)N2CCCc3ccccc32)c1)N(C)C (centres undefined) | inactive |  |
| COc1ccccc1N1CCN(C(=O)CCNC(=O)Cn2ccc3ccccc3c2=O)CC1 | inactive |  |
| CC(C)n1c2ccccc2c2nnc(SCC(=O)Nc3ccccc3C(=O)O)nc21 | inconclusive: 50.1 µM [inhibitor, partial curve, poor fit] |  |
| COCCN=c1scc(-c2ccco2)n1/N=C/c1ccc(O)c(O)c1O | inconclusive: 44.7 µM [inhibitor, partial curve, poor fit] |  |
| O=C(c1ccc(C(F)(F)F)cc1)N1CCC(c2noc(-c3ccc(S(=O)(=O)N4CCCC4)cc3)n2)CC1 | inactive |  |
| CN(C)C(=O)C(Sc1ccc(S(=O)(=O)N2CCCC2)cn1)c1ccccc1 (centres undefined) | inconclusive: 70.8 µM [inhibitor, partial curve, poor fit] |  |
